{"source": "PubChem BioAssay AID1434", "about": "(Sanford-Burnham Center for Chemical Genomics, 2008)", "note": "Some of the results follow. Further columns of the screen follow, without active or inactive calls. The list favours compounds with an active or inconclusive main result."}
{"molecular_target": "Runt-related transcription factor 1 (Homo sapiens) + Core-binding factor subunit beta (Homo sapiens) (UniProt Q01196+Q13951)", "sequence (Q01196 whole entry, looked up)": "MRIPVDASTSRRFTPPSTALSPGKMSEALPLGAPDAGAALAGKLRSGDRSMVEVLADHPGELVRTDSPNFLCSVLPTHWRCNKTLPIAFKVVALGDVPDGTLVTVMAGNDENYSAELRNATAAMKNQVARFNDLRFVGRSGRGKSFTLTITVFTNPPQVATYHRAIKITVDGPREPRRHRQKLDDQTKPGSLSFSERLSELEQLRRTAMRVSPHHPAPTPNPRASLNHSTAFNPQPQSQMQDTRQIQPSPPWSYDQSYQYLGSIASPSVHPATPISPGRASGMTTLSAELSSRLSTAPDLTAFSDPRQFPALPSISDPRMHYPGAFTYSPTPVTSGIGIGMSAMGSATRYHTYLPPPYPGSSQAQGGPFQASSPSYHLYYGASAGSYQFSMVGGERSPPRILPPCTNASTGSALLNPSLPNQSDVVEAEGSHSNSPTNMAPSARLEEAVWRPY", "sequence (Q13951 whole entry, looked up)": "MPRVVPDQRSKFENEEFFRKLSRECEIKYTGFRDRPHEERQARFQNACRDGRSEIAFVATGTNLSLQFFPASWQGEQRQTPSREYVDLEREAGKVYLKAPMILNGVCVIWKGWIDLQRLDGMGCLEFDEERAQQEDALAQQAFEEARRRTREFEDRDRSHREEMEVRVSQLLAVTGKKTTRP", "test": "inhibitors of RUNX1 Runt–CBFb-SMMHC binding, primary screen, biochemical, FRET, Cerulean-Runt, Venus-CBFb-SMMHC, uHTS (AID 1434);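 note: 0% = DMSO wells and 100% = wells with excess untagged CBFb-SMMHC; inhibitors lower the FRET ratio by blocking Runt binding to CBFb-SMMHC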", "settings": "Cerulean-Runt/Venus-CBFb-SMMHC FRET ratio 530/480, 1 h; retest duplicate average; at 20 µM; stronger effect = higher value", "units": {"inhibition": "%"}}
{"smiles": "CC1=CC(c2ccc(Cl)cc2)n2nc(NC(=O)CCC(=O)O)nc2N1", "note": "(configuration not stated)", "inhibition": 63.4}
{"smiles": "CC(=O)Oc1c(-c2ccco2)oc2ccccc2c1=O", "inhibition": 70.6}
{"smiles": "Cc1ccc(/C=C2/SC(=O)NC2=S)o1", "inhibition": 70.9}
{"smiles": "Fc1ccc(C2CC(c3cccs3)=NN2c2ccccc2)cc1", "note": "(configuration not stated)", "inhibition": 53.9}
{"smiles": "CCCc1cc(=O)oc2c(CN(CC)CC)c(O)c(Cl)cc12", "inhibition": 163}
{"smiles": "CCSc1ccc(-c2nn(-c3ccccc3)cc2/C=C(/C#N)C(=O)NC)cc1", "inhibition": 71.2}
{"smiles": "CCCn1nc(NC(=O)c2cccs2)c2cc3cc(C)ccc3nc21", "inhibition": 94.8}
{"smiles": "CC(=O)c1ccc(Nc2c3c(c(C#N)c4nc5ccccc5n24)CCC3)cc1", "inhibition": 54.9}
{"smiles": "CC(C)c1ccc(/C=C2\\Oc3c(ccc(O)c3CN3CCN(C)CC3)C2=O)cc1", "inhibition": 70.6}
{"smiles": "COc1ccc(C(=O)/C=C/Nc2ccc(S(=O)(=O)Nc3nc(C)cc(C)n3)cc2)c(OC)c1", "inhibition": 117}
{"smiles": "COc1ccc(N2C3=C(CC4=C2CCCC4=O)C(=O)CCC3)cc1", "inhibition": 106}
{"smiles": "O=C(Nc1nc2ccccc2s1)c1cc2c(s1)-c1ccccc1OC2", "inhibition": 81.5}
{"smiles": "Nc1nc2nc(-c3ccc(Cl)cc3)cc(C(F)(F)F)n2n1", "inhibition": 59.3}
{"smiles": "Cc1ccc(/C=C(\\C#N)C(=O)Nc2cccc3ncccc23)o1", "inhibition": 181}
{"smiles": "COCCCNC(=O)c1cc2c(=O)n3cc(C)ccc3nc2nc1NCC1CCCO1", "note": "(configuration not stated)", "inhibition": 71.5}
{"smiles": "O=C(O)c1cc(N/N=C/C=C/c2ccccc2)ccc1Cl", "inhibition": 87.2}
{"smiles": "COCC(C)OC(=O)c1c(N)n(CC(C)C)c2nc3ccccc3nc12", "note": "(configuration not stated)", "inhibition": 130}
{"smiles": "COc1cc(Cn2c(N)c(C#N)c3nc4ccccc4nc32)cc(OC)c1", "inhibition": 141}
{"smiles": "COc1ccc(-c2ccc(CCC(=O)O)n2CC2CCCO2)cc1", "note": "(configuration not stated)", "inhibition": 84.8}
{"smiles": "CCCCCNc1nc2sc3c(c2c(=O)n1-c1cccc(Cl)c1)CCN(C)C3", "inhibition": 153}
{"smiles": "N#Cc1c(NCCO)nc(NCc2ccccc2)c2c1CCN(Cc1ccccc1)C2", "inhibition": 72.9}
{"smiles": "CN(C)c1nc(-c2cccs2)cc(C(F)(F)F)c1C#N", "inhibition": 102}
{"smiles": "OCCN1CCN(c2nc(-c3ccccc3)c3cc(Cl)ccc3n2)CC1", "inhibition": 58.8}
{"smiles": "COC(=O)C1=CNC=C(C(=O)OC)C1c1cccc(OC)c1", "inhibition": 109}
{"smiles": "Cc1ccc(C2NC(=O)c3c(sc4c3CCN(C)C4)N2)o1", "note": "(configuration not stated)", "inhibition": 154}
{"smiles": "CCCn1c(=N)c(C(=O)NC2CCCC2)cc2c(=O)n3cccc(C)c3nc21", "inhibition": 71.5}
{"smiles": "CC(C)OCCCn1c(=N)c(C(N)=S)cc2c(=O)n3ccccc3nc21", "inhibition": 72.9}
{"smiles": "COc1cc(-c2onc3ccc(Br)cc23)cc(OC)c1OC", "inhibition": 129}
{"smiles": "N#Cc1c(N)n(CCc2ccc(F)cc2)c2nc3ccccc3nc12", "inhibition": 104}
{"smiles": "Fc1ccc(N2N=C(c3cccs3)CC2c2ccccc2)cc1", "note": "(configuration not stated)", "inhibition": 69.6}
{"smiles": "C=C1c2cc(C)c(C)cc2NC(=O)N1c1ccccc1", "inhibition": 53.6}
{"smiles": "Cc1ccc(Cn2c(=N)c(C(=O)NCc3ccco3)cc3c(=O)n4ccccc4nc32)cc1", "inhibition": 71.5}
{"smiles": "Cc1c(NC(=S)N/N=C/c2ccc(N(C)C)cc2)c(=O)n(-c2ccccc2)n1C", "inhibition": 53.3}
{"smiles": "O=C1C2C3C=CC(CO)(O3)C2C(=O)N1c1ccccc1-c1ccccc1", "note": "(configuration not stated)", "inhibition": 67.3}
{"smiles": "CCN(CC)c1ccc2cc(S(=O)(=O)c3ccc(C)cc3)c(=O)oc2c1", "inhibition": 71.5}
{"smiles": "CCN(CC)c1ccc(/C=C(\\C#N)C(=O)NCc2ccccc2)cc1", "inhibition": 103}
{"smiles": "CCCCn1nc(NC(=O)c2cccs2)c2cc3ccccc3nc21", "inhibition": 66.1}
{"smiles": "CN1CC=C2C(C#N)=C(N)C(C#N)(C#N)[C@H](c3ccoc3)[C@H]2C1", "inhibition": 55.5}
{"smiles": "CCc1cc2c(CN3CCN(CCO)CC3)cc(=O)oc2cc1O", "inhibition": 71.5}
{"smiles": "Cc1ccc(C2C3=C(CC(C)(C)CC3=O)N(CCN3CCOCC3)C3=C2C(=O)CC(C)(C)C3)cc1", "inhibition": 72.9}
{"smiles": "CCOc1ccc(-c2csc(NC(=O)CSCC(=O)O)n2)c2ccccc12", "inhibition": 112}
{"smiles": "CC(C)N1CCc2c(sc(NC(=O)CCc3ccccc3)c2C(N)=O)C1", "inhibition": 70.8}
